Reference: ChEMBL document CHEMBL4513135, “CO-ADD screening of IQOG CSIS (Spain) compounds”
Some of the results follow. Potency and affinity values are given separately.

These molecules were tested on Pseudomonas aeruginosa. Conditions: Concentration 32 ug.mL-1; ASSAY_TEST Inhibition of Bacterial Growth; detection method Absorption (OD600); MEDIA CAMHB; plate type 384well; NBS; CORNING #3640; time 18 hr.
With `Cc1nc2c3cnn(-c4ccccc4)c3ncn2n1` the Inhibition was 20.11%. Molecule `CC#CCN(C)Cc1cc2cc(OCc3ccccc3)ccc2n1C.O=C(O)C(=O)O` has an Inhibition of 46.42%. Molecule `COc1ccc(C2C(C#N)=C(N)Oc3ccc4ccccc4c32)cc1OC` (stereo unspecified) has an Inhibition of 42.73%. For `COc1ccc(C2c3ccc4ccccc4c3OC(=NBr)C2(Br)C#N)cc1OC` (stereo unspecified), the Inhibition was -3.09%. `C#CCN(C)c1nc(NCCC2CCN(Cc3ccccc3)CC2)c(C#N)cc1C#N.Cl` gave an Inhibition of 20.22%. With `Cn1cc(C=O)c2ccccc21` the Inhibition was 30.5%. `N#C[C@]1(Br)C(=N)Oc2ccc3ccccc3c2[C@@H]1c1ccc([N+](=O)[O-])cc1` was tested, and the Inhibition was 7.04%. Molecule `Cc1[nH]c2ccc(OCc3ccccc3)cc2c1C(=O)NN` has an Inhibition of 19.45%. For `Cl.OCC1CCN(Cc2ccccc2)CC1`, the Inhibition was 20.26%. `Cc1ccc(-c2c(C#N)c(N)nc3c2S(=O)(=O)OC3(C)C)cc1` showed an Inhibition of 25.27%. With `CCOC(=O)C1=C(C)OC(N)=C(C#N)C1c1ccncc1` (stereo unspecified) the Inhibition was 3.69%. In the case of `CCOC(N)=CC#N`, the Inhibition is reported as -10.84%. Molecule `COc1ccc(C2C(C#N)=C(N)Oc3[nH]nc(C)c32)cc1` (stereo unspecified) has an Inhibition of -9.91%. For `COc1ccc(C2c3c(nc4c(c3N)CCCC4)Oc3ccc4ccccc4c32)cc1` (stereo unspecified), the Inhibition was 16.04%. `Nc1ccccc1C(=O)N/N=C/c1c[nH]c2ccccc12` showed an Inhibition of 37.43%. In the case of `C#CCNc1nc(NC2CCN(Cc3ccccc3)CC2)c(C#N)c(-c2ccccc2)c1C#N`, the Inhibition is reported as -10.53%. `COc1ccccc1[C@H]1c2c(ccc3ccccc23)O/C(=N\Br)[C@@]1(Br)C#N` was tested, and the Inhibition was 7.92%. `C=CCNc1nc(N)c(C#N)cc1C#N` gave an Inhibition of 19.11%. With `COc1ccc(CNNC(=O)c2cc3ccccc3[nH]2)cc1O` the Inhibition was 19.79%. With `Cl.Cl.Cn1c(CNc2ccccc2)cc2cc(OCCCC3CCN(Cc4ccccc4)CC3)ccc21` the Inhibition was 22.59%. With `C#CCN(C)Cc1cc2cc(OCOc3ccc4c(c3)cc(CN(C)CC#C)n4C)ccc2n1C` the Inhibition was 9.21%. In the case of `CN(C)c1nc(N)c(C#N)cc1C#N`, the Inhibition is reported as 42.85%. `Nc1nc(N)c(C=O)c(-c2ccccc2)c1C=O` was tested, and the Inhibition was -6.56%. Molecule `Nc1c2c(nc3c1C(c1c(Cl)cccc1Cl)c1ccc4ccccc4c1O3)CCCC2` (stereo unspecified) has an Inhibition of 29.99%. Work on `N#CC1(Br)C(=NBr)Oc2ccc3ccccc3c2C1c1cccc([N+](=O)[O-])c1` (stereo unspecified) yielded an Inhibition of -8.4%. `Cn1c(C(=O)O)cc2ccccc21` gave an Inhibition of 35.26%. With `Cc1nc(Nc2ccccc2)c2c(C)nn(-c3ccccc3)c2n1` the Inhibition was 14.25%. For `N#Cc1cc2c(N)c3c(nc2nc1N1CCCCC1)CCCC3`, the Inhibition was 37.52%. Molecule `CCOC(=O)c1cc2cc(OC(=O)Oc3ccc([N+](=O)[O-])cc3)ccc2[nH]1` has an Inhibition of 10.28%. For `CN(Cc1cn(Cc2ccccc2)nn1)Cc1cc2cc(OCCCC3CCN(Cc4ccccc4)CC3)ccc2n1C`, the Inhibition was 18.76%. Work on `Cl.NC1(C(=O)O)CC1c1ccccc1` (stereo unspecified) yielded an Inhibition of 34.23%. `O=C(NCc1ccccc1)c1cc2ccccc2[nH]1` was tested, and the Inhibition was 7.26%. In the case of `C#CCNc1nc(NCCCC2CCN(Cc3ccccc3)CC2)c(C#N)cc1C#N.Cl`, the Inhibition is reported as -31.38%. In the case of `N#CC1(Br)C(=NBr)Oc2c(ccc3ccccc23)C1c1cccc([N+](=O)[O-])c1` (stereo unspecified), the Inhibition is reported as 1.12%. `CNC(=O)c1cc2cc(OC)ccc2[nH]1` showed an Inhibition of 37.97%. `CCOc1nc2nc(C)c(C=C3CCN(Cc4ccccc4)CC3)cc2c(-c2ccccc2)c1C#N` showed an Inhibition of 15.48%. In the case of `COc1ccc(-c2cc(-c3ccccc3)c(C#N)c(N)n2)cc1`, the Inhibition is reported as -16.55%. `O=C(N/N=C/Cc1ccccc1)c1cc2ccccc2n1Cc1ccccc1` was tested, and the Inhibition was 11.47%. `COc1ccc(C2c3c(ccc4ccccc34)OC(=NBr)C2(Br)C#N)cc1OC` (stereo unspecified) was tested, and the Inhibition was -3.46%. Work on `O[C@H]1CC[C@H](NCc2ccccc2)CC1` yielded an Inhibition of 27.35%. In the case of `Cl.Nc1c2c(nc3c1C(c1ccccc1)c1c(ccc4ccccc14)O3)CCCC2` (stereo unspecified), the Inhibition is reported as 33.82%. `N#C/C(=C\c1ccccc1)C(=O)c1ccccc1` showed an Inhibition of 24.67%. Molecule `NC(=O)c1cc2cc(OCc3ccccc3)ccc2[nH]1` has an Inhibition of 14.94%. Work on `Nc1c2c(nc3c1c1ccccc1n3Cc1ccccc1)CCCC2` yielded an Inhibition of 35.2%. `COc1ccc2cc(C3C4=C(CC(C)(C)CC4=O)Oc4nc5c(c(N)c43)CCCC5)c(Cl)nc2c1` (stereo unspecified) was tested, and the Inhibition was 7.66%. Work on `O=C1OC(c2ccccc2)=NC12CC2c1ccc([N+](=O)[O-])cc1` (stereo unspecified) yielded an Inhibition of 38.36%. With `N#Cc1cc(C#N)c(NCCCCC2CCN(Cc3ccccc3)CC2)nc1N` the Inhibition was 9.25%. `CC(C)(C)OC(=O)Nc1ccc(Br)cn1` showed an Inhibition of 8%. `CC(=O)N1CC(=O)NC1=S` gave an Inhibition of 42.84%. `C#CCN1CCc2nc3nc(N(C)C)c(C#N)cc3c(N)c2C1` gave an Inhibition of 32.41%. Molecule `C#CCN(C)c1nc(NCCCCC2CCN(Cc3ccccc3)CC2)c(C#N)cc1C#N` has an Inhibition of 0.72%. In the case of `O=C(COc1ccc2ccccc2c1)NNCc1c[nH]c2ccccc12`, the Inhibition is reported as 21.76%. In the case of `Nc1c2c(nc3c1C(c1ccccc1)c1ccc4ccccc4c1O3)CCCC2` (stereo unspecified), the Inhibition is reported as 32.82%. Work on `CC1Cc2ccccc2N1/N=C/c1ccccc1` (stereo unspecified) yielded an Inhibition of 16.29%. For `Cn1cc(C(=O)NN)c2ccccc21`, the Inhibition was 1.41%. In the case of `Nc1c2c(nc3c1CC(c1c(Cl)cccc1Cl)C(=O)N3)CCCC2` (stereo unspecified), the Inhibition is reported as 11.78%. With `COc1nc2nc3c(c(N)c2cc1C#N)CCCC3` the Inhibition was 18.62%. `Cn1ccnc1C1C2=C(CC(C)(C)CC2=O)Oc2nc3c(c(N)c21)CCCC3` (stereo unspecified) gave an Inhibition of -3.62%. For `Cc1cnc2ccc(Br)cn12`, the Inhibition was 29.12%. With `CCOC(=O)C1=C(C)Nc2nc3c(c(N)c2C1c1ccc([N+](=O)[O-])cc1)CCCC3.Cl` (stereo unspecified) the Inhibition was 39.54%. With `N#Cc1cc(C#N)c(NCCCC2CCN(Cc3ccccc3)CC2)nc1N` the Inhibition was 8.97%. Work on `Cc1ccc(/C=C(\C#N)C(=O)c2ccccc2)cc1` yielded an Inhibition of 27.43%. Molecule `CC(=O)/C=C/C1CCN(Cc2ccccc2)CC1` has an Inhibition of 12.99%. With `CC(=O)Nc1nc(Cl)c(C#N)c(-c2ccccc2)c1C#N` the Inhibition was 14.84%. `N#Cc1c(N)nc(N2CCCCC2)c(C#N)c1-c1ccccc1` gave an Inhibition of 17.98%. `CCOC(=O)C1=C(C)OC(N)=C(C#N)C1c1ccc(OC)c(OC)c1` (stereo unspecified) showed an Inhibition of 27.7%.
